# Measurements taken from publication PMC9911399, “Two distinct binding modes provide the RNA-binding protein RbFox with extraordinary sequence specificity”.
# Changes are numbered by the printed parent chain; changes in the protein carry UniProt numbers. The list shows a part of the results.
# T1: RBFOX1 RRM RbFoxmut (Fox-RRM*) (Homo sapiens, UniProt Q9NWB1 109-208, R118D;E147R;N151S;E152T)
# T1 sequence: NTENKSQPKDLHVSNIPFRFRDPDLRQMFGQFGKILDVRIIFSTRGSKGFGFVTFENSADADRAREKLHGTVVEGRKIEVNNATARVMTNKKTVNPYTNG
# B1: UUAAUGG (DNA:RNA)
# RNA: GGGAGACCGGAAUUCAGAUUGUCCUUAAUGGUUAAAUCCCGUCGUAGCCACCA
# DNA 1: CAATCTGAATTCCGGTCTCCC
# DNA 2: TGGTGGCTACGACGGGATT
# B2: UUUCUGA (DNA:RNA)
# RNA: B1 RNA with A27U, A28C, G31A
# DNA 1: CAATCTGAATTCCGGTCTCCC
# DNA 2: TGGTGGCTACGACGGGATT
# B3: GUUGCCG (DNA:RNA)
# RNA: B1 RNA with U25G, A27U, A28G, U29C, G30C
# DNA 1: CAATCTGAATTCCGGTCTCCC
# DNA 2: TGGTGGCTACGACGGGATT
# B4: UUGGACU (DNA:RNA)
# RNA: B1 RNA with A27G, A28G, U29A, G30C, G31U
# DNA 1: CAATCTGAATTCCGGTCTCCC
# DNA 2: TGGTGGCTACGACGGGATT
# B5: UGCGUGU (DNA:RNA)
# RNA: B1 RNA with U26G, A27C, A28G, G31U
# DNA 1: CAATCTGAATTCCGGTCTCCC
# DNA 2: TGGTGGCTACGACGGGATT
# B6: CGCAGUA (DNA:RNA)
# RNA: B1 RNA with U25C, U26G, A27C, U29G, G30U, G31A
# DNA 1: CAATCTGAATTCCGGTCTCCC
# DNA 2: TGGTGGCTACGACGGGATT
# B7: CCCACGU (DNA:RNA)
# RNA: B1 RNA with U25C, U26C, A27C, U29C, G31U
# DNA 1: CAATCTGAATTCCGGTCTCCC
# DNA 2: TGGTGGCTACGACGGGATT
# B8: CAGUCGC (DNA:RNA)
# RNA: B1 RNA with U25C, U26A, A27G, A28U, U29C, G31C
# DNA 1: CAATCTGAATTCCGGTCTCCC
# DNA 2: TGGTGGCTACGACGGGATT
# B9: UCAUAGA (DNA:RNA)
# RNA: B1 RNA with U26C, A28U, U29A, G31A
# DNA 1: CAATCTGAATTCCGGTCTCCC
# DNA 2: TGGTGGCTACGACGGGATT
# B10: UACCAAA (DNA:RNA)
# RNA: B1 RNA with U26A, A27C, A28C, U29A, G30A, G31A
# DNA 1: CAATCTGAATTCCGGTCTCCC
# DNA 2: TGGTGGCTACGACGGGATT
# B11: UAUAUGU (DNA:RNA)
# RNA: B1 RNA with U26A, A27U, G31U
# DNA 1: CAATCTGAATTCCGGTCTCCC
# DNA 2: TGGTGGCTACGACGGGATT
# B12: CAAGCUC (DNA:RNA)
# RNA: B1 RNA with U25C, U26A, A28G, U29C, G30U, G31C
# DNA 1: CAATCTGAATTCCGGTCTCCC
# DNA 2: TGGTGGCTACGACGGGATT
# B13: CGCCCGU (DNA:RNA)
# RNA: B1 RNA with U25C, U26G, A27C, A28C, U29C, G31U
# DNA 1: CAATCTGAATTCCGGTCTCCC
# DNA 2: TGGTGGCTACGACGGGATT
# B14: GCAACAC (DNA:RNA)
# RNA: B1 RNA with U25G, U26C, U29C, G30A, G31C
# DNA 1: CAATCTGAATTCCGGTCTCCC
# DNA 2: TGGTGGCTACGACGGGATT
# B15: AUAGUUC (DNA:RNA)
# RNA: B1 RNA with U25A, A28G, G30U, G31C
# DNA 1: CAATCTGAATTCCGGTCTCCC
# DNA 2: TGGTGGCTACGACGGGATT
# B16: AGUUCGC (DNA:RNA)
# RNA: B1 RNA with U25A, U26G, A27U, A28U, U29C, G31C
# DNA 1: CAATCTGAATTCCGGTCTCCC
# DNA 2: TGGTGGCTACGACGGGATT
# B17: GAACCCG (DNA:RNA)
# RNA: B1 RNA with U25G, U26A, A28C, U29C, G30C
# DNA 1: CAATCTGAATTCCGGTCTCCC
# DNA 2: TGGTGGCTACGACGGGATT
# B18: UGAACUA (DNA:RNA)
# RNA: B1 RNA with U26G, U29C, G30U, G31A
# DNA 1: CAATCTGAATTCCGGTCTCCC
# DNA 2: TGGTGGCTACGACGGGATT
# B19: UCGACGG (DNA:RNA)
# RNA: B1 RNA with U26C, A27G, U29C
# DNA 1: CAATCTGAATTCCGGTCTCCC
# DNA 2: TGGTGGCTACGACGGGATT
# B20: GUACCCC (DNA:RNA)
# RNA: B1 RNA with U25G, A28C, U29C, G30C, G31C
# DNA 1: CAATCTGAATTCCGGTCTCCC
# DNA 2: TGGTGGCTACGACGGGATT
# B21: ACGCGCU (DNA:RNA)
# RNA: GGGAGACCGGAAUUCAGAUUGUCCACGCGCUUUAAAUCCCGUCGUAGCCACCA
# DNA 1: CAATCTGAATTCCGGTCTCCC
# DNA 2: TGGTGGCTACGACGGGATT
# B22: CGGCCGA (DNA:RNA)
# RNA: B21 RNA with A25C, C26G, G29C, C30G, U31A
# DNA 1: CAATCTGAATTCCGGTCTCCC
# DNA 2: TGGTGGCTACGACGGGATT
# B23: GUGGACU (DNA:RNA)
# RNA: B21 RNA with A25G, C26U, C28G, G29A
# DNA 1: CAATCTGAATTCCGGTCTCCC
# DNA 2: TGGTGGCTACGACGGGATT
# B24: CACGAGC (DNA:RNA)
# RNA: B1 RNA with U25C, U26A, A27C, A28G, U29A, G31C
# DNA 1: CAATCTGAATTCCGGTCTCCC
# DNA 2: TGGTGGCTACGACGGGATT
# B25: UGAGUAC (DNA:RNA)
# RNA: B1 RNA with U26G, A28G, G30A, G31C
# DNA 1: CAATCTGAATTCCGGTCTCCC
# DNA 2: TGGTGGCTACGACGGGATT
# B26: AAGCCGG (DNA:RNA)
# RNA: B21 RNA with C26A, G29C, C30G, U31G
# DNA 1: CAATCTGAATTCCGGTCTCCC
# DNA 2: TGGTGGCTACGACGGGATT
# B27: GAUCGCG (DNA:RNA)
# RNA: B21 RNA with A25G, C26A, G27U, U31G
# DNA 1: CAATCTGAATTCCGGTCTCCC
# DNA 2: TGGTGGCTACGACGGGATT
# B28: ACGGCUA (DNA:RNA)
# RNA: B21 RNA with C28G, G29C, C30U, U31A
# DNA 1: CAATCTGAATTCCGGTCTCCC
# DNA 2: TGGTGGCTACGACGGGATT
# B29: CGGCGAA (DNA:RNA)
# RNA: B21 RNA with A25C, C26G, C30A, U31A
# DNA 1: CAATCTGAATTCCGGTCTCCC
# DNA 2: TGGTGGCTACGACGGGATT
# B30: GGACAUG (DNA:RNA)
# RNA: B1 RNA with U25G, U26G, A28C, U29A, G30U
# DNA 1: CAATCTGAATTCCGGTCTCCC
# DNA 2: TGGTGGCTACGACGGGATT
# B31: UGACGGC (DNA:RNA)
# RNA: B1 RNA with U26G, A28C, U29G, G31C
# DNA 1: CAATCTGAATTCCGGTCTCCC
# DNA 2: TGGTGGCTACGACGGGATT
# Molecular target: T1, RBFOX1 RRM RbFoxmut (Fox-RRM*)
# Test: EMSA; HiTS-Eq, 1 nM pool, 10 min; buffer printed only for the single-RNA assays: 10 mM Tris pH 7.5, 150 mM NaCl, 3.4 mM EDTA, 0.001% NP-40, 30 C
# Details: tags: His6 N-terminal (pET28a); label: 5' 32P
# Outline: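 Purified RbFox RRM, wild type or mutant, was incubated for 10 min in 50 µL with 1 nM of a 5′-radiolabelled RNA pool carrying 7 randomized nucleotides, whose flanks were annealed to DNA oligonucleotides, over a series of increasing protein concentrations. Unbound RNA was resolved on 8% native PAGE, cut out, reverse-transcribed, barcoded by PCR and sequenced on an Illumina HiSeq 2500. Relative association constants were derived from changes in read counts for each RNA species versus the control reaction and normalised to the cognate motif.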
row,Binder,binding signal
1,B1,0.0858 KA relative to UGCAUGU
2,B2,0.0685 KA relative to UGCAUGU
3,B3,0.101 KA relative to UGCAUGU
4,B4,0.0483 KA relative to UGCAUGU
5,B5,0.26 KA relative to UGCAUGU
6,B6,0.164 KA relative to UGCAUGU
7,B7,0.081 KA relative to UGCAUGU
8,B8,0.073 KA relative to UGCAUGU
9,B9,0.114 KA relative to UGCAUGU
10,B10,0.0879 KA relative to UGCAUGU
11,B11,0.123 KA relative to UGCAUGU
12,B12,0.0778 KA relative to UGCAUGU
13,B13,0.0999 KA relative to UGCAUGU
14,B14,0.0633 KA relative to UGCAUGU
15,B15,0.103 KA relative to UGCAUGU
16,B16,0.11 KA relative to UGCAUGU

row,Binder,binding signal
1,B17,0.0645 KA relative to UGCAUGU
2,B18,0.0868 KA relative to UGCAUGU
3,B19,0.0735 KA relative to UGCAUGU
4,B20,0.0445 KA relative to UGCAUGU
5,B21,0.107 KA relative to UGCAUGU
6,B22,0.0762 KA relative to UGCAUGU
7,B23,0.07 KA relative to UGCAUGU
8,B24,0.0679 KA relative to UGCAUGU
9,B25,0.0901 KA relative to UGCAUGU
10,B26,0.0776 KA relative to UGCAUGU
11,B27,0.11 KA relative to UGCAUGU
12,B28,0.138 KA relative to UGCAUGU
13,B29,0.0938 KA relative to UGCAUGU
14,B30,0.314 KA relative to UGCAUGU
15,B31,0.086 KA relative to UGCAUGU
